# Measurements: patent US6830937 (Bristol-Myers Squibb, dated 2004)
# T1: B7 antigen (UniProt P33681 35-288, limits assumed)
# T1 construct: whole, on cells; Whole membrane protein on cells; also called B7/BB-1 antigen; ligand for CD28
# T1 sequence (looked up): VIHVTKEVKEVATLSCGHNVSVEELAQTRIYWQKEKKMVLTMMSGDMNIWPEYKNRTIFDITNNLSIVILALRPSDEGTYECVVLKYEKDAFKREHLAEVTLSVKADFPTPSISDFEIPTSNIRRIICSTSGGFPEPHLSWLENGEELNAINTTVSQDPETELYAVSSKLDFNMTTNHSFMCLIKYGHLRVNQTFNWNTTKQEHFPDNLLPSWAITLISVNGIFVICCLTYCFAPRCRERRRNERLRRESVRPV
# T2: CD5 (on transfected COS cells) (UniProt P06127 25-495, limits assumed)
# T2 construct: whole, on cells; Control transfectant in the CD28 adhesion assay
# T2 sequence (looked up): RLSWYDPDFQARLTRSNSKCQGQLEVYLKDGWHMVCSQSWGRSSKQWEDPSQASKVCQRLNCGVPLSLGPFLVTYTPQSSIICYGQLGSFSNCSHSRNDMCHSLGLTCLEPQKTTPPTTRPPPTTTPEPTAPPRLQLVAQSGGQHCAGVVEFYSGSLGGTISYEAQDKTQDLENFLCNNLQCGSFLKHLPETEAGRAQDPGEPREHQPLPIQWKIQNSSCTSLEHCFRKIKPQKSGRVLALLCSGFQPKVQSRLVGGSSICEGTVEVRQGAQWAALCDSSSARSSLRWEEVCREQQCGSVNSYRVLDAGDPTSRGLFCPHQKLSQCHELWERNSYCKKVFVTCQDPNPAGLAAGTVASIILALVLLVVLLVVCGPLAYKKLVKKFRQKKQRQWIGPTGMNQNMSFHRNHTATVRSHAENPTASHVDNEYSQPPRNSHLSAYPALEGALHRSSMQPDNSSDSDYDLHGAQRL
# B1: CD28 receptor (receptor)
# chain: not shown
# notes: whole, on cells; also called CD28 antigen; CD28+ CHO cells
# What was measured:
# B7 antigen = target: T1, B7 antigen; experiment: cell adhesion assay, 51Cr-labeled COS cells on CD28+ CHO monolayers, 10 mM EDTA
# [1] = target: T2, CD5 (on transfected COS cells); experiment: adhesion of 51Cr-labeled transfected COS cells to CD28+ CHO cells
# [2] = target: T3, CD4 (on transfected COS cells) (UniProt P01730); experiment: as above
# T3 construct: whole, on cells; Control transfectant in the CD28 adhesion assay
binder,measurement,setting,value
B1,binding result,B7 antigen,binds
same,binding result,[1],no binding
same,binding result,[2],no binding
